From PMC12136788 come the findings set out here.

Some of the results follow.

B1: chr12:442458:442559:+|3pUTR|ENSG00000120647|unk|total|mutant (ssRNA)
RNA: GGGAGUUCUACAGUCCGACGAUCCCUGAGCAGAGCCUGAAUUACGUUUUUGGGCAAUUUCAUGGUGUUUCACCAGAGGGCGCCCGAGACUCAAACGAAAUGUCCAUCUGGAAAGAUUCGGGAGACACUUUGCCGAGGGGAUGACAACAGAGGAUUGAGCAUCA
B2: chrX:52696895:52697518:-|three_prime_utr|ENSG00000241476|control|control|control (ssRNA)
RNA: GGGAGUUCUACAGUCCGACGAUCGAACGUGGUGACCUUUCACGAACAUGGGCAUGGCUGCGGACCCCUCGUCAUCAGGUGCAUAGCAAGUGAAAGCAAGUGUUCACAACAGUGAAAAGUUGAGCGUCAUUUUUCUUAGUGUGCCAACAGAGGAUUGAGCAUCA
B3: ENSG00000107863:be:win_651|CDS|ENSG00000107863|bound_else_gene|NA|bound_elsewhere_windowed (ssRNA)
RNA: GGGAGUUCUACAGUCCGACGAUCAGUUGAAAUAUCUCCUCCUGACUCAUCAUUGAGCAAACAGCAAACCAGUACACCAGUACUGACACAACCUGGUAGGGCCUAUAGAAUGGAAAUACAAGUGCCUCCAUCACCAACAGAUGUCAACAGAGGAUUGAGCAUCA
B4: chr5:72208420:72208520:+|3pUTR|ENSG00000131711|msi1_unk|FALSE|overlapping (ssRNA)
RNA: GGGAGUUCUACAGUCCGACGAUCCUCAUGAUCAUGACCUUUUUGGUAGUAUUCUUAAACAAAAUUCUACAGAGACUAAAUGUUAGCGAUGAUCCUCCAUUUUCAAUUUUAACCAAUUCUGUCCCCUUUCUCAAAACCCUGAGCCAACAGAGGAUUGAGCAUCA
B5: ENSG00000070961:be:win_2001|CDS|ENSG00000070961|bound_else_gene|NA|bound_elsewhere_windowed (ssRNA)
RNA: GGGAGUUCUACAGUCCGACGAUCAAAUGAUAUUGUCACCGGCCUUACAUGCAUUGCUGUUGUGGGGAUUGAAGAUCCUGUGAGACCUGAGGUGCCAGAUGCAAUUAAAAAGUGUCAGAGGGCUGGAAUUACUGUGCGGAUGGUCAACAGAGGAUUGAGCAUCA
B6: ENSG00000144554:stop:overlap|stop_codon|ENSG00000144554|stop_codon|NA|stop_codon (ssRNA)
RNA: GGGAGUUCUACAGUCCGACGAUCACGAAGUAAGUGCUGGAGAAAAGGAGCAAGAUAGUGAUGAGAGUUAUGAUGACUCUGAUUAGACCCCAGAUAAAUUGUUGCCUGCUUCUGUGUCUCUGCCAGCCUGUGAUCAUUUUGUGUCAACAGAGGAUUGAGCAUCA
B7: chr19:2274630:2275679:-|three_prime_utr|ENSG00000188305|control|control|control (ssRNA)
RNA: GGGAGUUCUACAGUCCGACGAUCACACCUGGUCCAGGCCUGCCCAGGAGGCAGGGCUGGGGCUGAGGUCAGCGUCUCCAUGAUAGCCAAGACACCCUCUUCCUGCAGAGUCCAGGAGCGCAGCAGAGAGAGCAAUGCCCCACUCAACAGAGGAUUGAGCAUCA
B8: chr2:119156242:119156801:-|three_prime_utr|ENSG00000144119|control|control|control (ssRNA)
RNA: GGGAGUUCUACAGUCCGACGAUCCAAGGGAGGAAGGGACGCCCGAGCCCUUGAGGCGGCGGCACAGACUUUGCAAACCUGAUUAGACUGGACAGGCAGGGCCGGGAGCCUGCCCUCCUCAGACAGCCUCCUCCCAGUGCCUAGCAACAGAGGAUUGAGCAUCA
B9: ENSG00000136451:be:win_2701|3pUTR|ENSG00000136451|bound_else_gene|NA|bound_elsewhere_windowed (ssRNA)
RNA: GGGAGUUCUACAGUCCGACGAUCUGUAAAUAUGGACAUCACUUUUUUUUUCUUUGAGAAAACACUUGUAUCAGCUUUGUGGUGUUUUCAGGGAGACAGCUGUCUGCAUUCCCUGUAGAAACCCAGCAAUGAUUAUGCACGUUGCAACAGAGGAUUGAGCAUCA
B10: chr17:77200548:77200649:+|CDS|ENSG00000129657|msi1|total|mutant (ssRNA)
RNA: GGGAGUUCUACAGUCCGACGAUCUAUUGACAAAGCCAGAGAGAUCAUGUGUCAGUCUUUGACGUGGAGAAAGCAGCAUCAGGCCGACUACAUUCUUGAAACCUGGACCCCUCCUCAGGUCCUUCAGGAUUACUACGCGGGAGGCAACAGAGGAUUGAGCAUCA
B11: chr12:96943601:96943709:+|CDS|ENSG00000139350|unk|FALSE|unique (ssRNA)
RNA: GGGAGUUCUACAGUCCGACGAUCAACUCAGUGUUUCCUCCAAGAAAAAAUCCAGUAACUUCAAGUACUUCAGUAUUGCAUUCUAGUCCUCUUAAUGUUUUUAUGGGAUCUCCAGGGAAAGAGGAAAAUGAAAACCGUGAUCUACAACAGAGGAUUGAGCAUCA
B12: chr10:30312946:30313047:-|3pUTR|ENSG00000107951|unk|total|mutant (ssRNA)
RNA: GGGAGUUCUACAGUCCGACGAUCUCUUAUUCACAUAUAAAUUAAAGUGGGUUGGUACUGAUAUCAAAAAAUGUUUAUGUUUUCCGAACAGACAUUUCAGUCACUGCAUUCUCCGGUAUUCCAAACCAAAUAUGAUGACAUCAACAACAGAGGAUUGAGCAUCA
B13: chr15:34983303:34983404:-|CDS|ENSG00000198146|msi1|FALSE|unique (ssRNA)
RNA: GGGAGUUCUACAGUCCGACGAUCGCUGAAAACAAUUUAAAAAUGCUAAAGAUUCAACAGUGUGUGGUAGCCAACAAACUACCUAGAAACAGGCCAUAUGUUUGCAAUAUUUGUUUUAAGCACUUUGAAACACCAUCAAAAUUACAACAGAGGAUUGAGCAUCA
B14: chr1:108699644:108699745:+|CDS|ENSG00000134186|unk|FALSE|bound_elsewhere (ssRNA)
RNA: GGGAGUUCUACAGUCCGACGAUCGAUUCCAAGAAAGAGAAAAAACACAGUAGAAGCAGAAGCAGAGAAAGGAAACACAGAAGUAGGAGUCGAAGUAGAAAUGCAGGGAAACGAAGUAGAAGUAGAAGCAAAGAGAAAUCAAGUCAACAGAGGAUUGAGCAUCA
B15: chr3:138945594:138946722:-|CDS|ENSG00000183770|control|control|control (ssRNA)
RNA: GGGAGUUCUACAGUCCGACGAUCCCCGGCCGCCUCGUACGGGCCGUACACACGCGUGCAGAGCAUGGCGCUGCCCCCCGGCGUAGUGAACUCGUACAAUGGCCUGGGAGGCCCGCCGGCCGCACCCCCGCCUCCGCCGCACCCCAACAGAGGAUUGAGCAUCA
B16: ENSG00000173068:stop:overlap|stop_codon|ENSG00000173068|stop_codon|NA|stop_codon (ssRNA)
RNA: GGGAGUUCUACAGUCCGACGAUCGAAAUCGGCACAGUCAGAACCCUAAUCUCCACAAAAACAUUCCCUUCACUUCAGUAGAUUAGUCUCAGAAUGGACACUACAAAUGCCAGCUCUCACCAGAUGGCCUACGUGUUUGAACUGCAACAGAGGAUUGAGCAUCA
B17: chr1:109310645:109310811:-|3pUTR|ENSG00000134243|msi1|FALSE|unique (ssRNA)
RNA: GGGAGUUCUACAGUCCGACGAUCAGGGUAACGGGGCUGGCCUGGCAUUAGUCAUUAUUUAGUUUCCAGGCCAACCAUCCAGAUAGAGAUUCCCUCUUUCCUUUGAGCAGUGCUCUCAAGAGCUCCGUGCCUGUCCACAAUGACCAACAGAGGAUUGAGCAUCA
B18: chr8:78602526:78602623:+|3pUTR|ENSG00000171033|msi1_unk|FALSE|overlapping (ssRNA)
RNA: GGGAGUUCUACAGUCCGACGAUCUUGUAUGUUGAUGAGUUGAUUAAGUCUAACAGAUUCAUCAAGACUCCAUUGCUUUAUUAUAGAGACAUUUGAAAAUAUCCAUUAAUGUGAAUAUCACCUGAAUUCAGUCUGUUUGGUGUCCAACAGAGGAUUGAGCAUCA
B19: chr16:56943551:56943652:+|3pUTR|ENSG00000051108|msi1|FALSE|unique (ssRNA)
RNA: GGGAGUUCUACAGUCCGACGAUCUGCAUGUCUAUGCUUGAGGAACUUUUCCAAAUGUGUGUGUCUGCAUGUGUGUUUGUACAUAGAAGUCAUAGAUGCAGAAGUGGUUCUGCUGGUACGAUUUGAUUCCUGUUGGAAUGUUUACAACAGAGGAUUGAGCAUCA
B20: chr8:58579689:58579790:+|CDS|ENSG00000137575|msi1|total|mutant (ssRNA)
RNA: GGGAGUUCUACAGUCCGACGAUCAGCACUGGACAUGUUGGUUUUAUCUUUAAAAAUGGAAAAAUAACAUCCACCGUGAAAGACCGCUCUGCAGCCAGAAAUGGUCUUCUCACGGAACAUAACAUCUGUGAAAUCAAUGGACAGCAACAGAGGAUUGAGCAUCA
B21: chr9:83661418:83661519:-|3pUTR|ENSG00000135018|msi1|FALSE|unique (ssRNA)
RNA: GGGAGUUCUACAGUCCGACGAUCUAUAGUUGGGUGACCAGAUUUUGUCCUGCAUCUGUCCAGUUUAUUUGCUUUUUAAACAUUAGCCUAUGGUAGUAAUUUAUGUAGAAUAAAAGCAUUAAAAAGAAGCAAAUCAUUUGCACUCAACAGAGGAUUGAGCAUCA
B22: chr3:41225653:41225883:+|CDS|ENSG00000168036|unk|FALSE|unique (ssRNA)
RNA: GGGAGUUCUACAGUCCGACGAUCCAUUACAACUCUCCACAACCUUUUAUUACAUCAAGAAGGAGCUAAAAUGGCAGUGCGUUUAGCUGGUGGGCUGCAGAAAAUGGUUGCCUUGCUCAACAAAACAAAUGUUAAAUUCUUGGCCAACAGAGGAUUGAGCAUCA

The target of this experiment is MSI1 full-length (mouse, UniProt Q61474 1-362). Put plainly: nsRBNS (natural sequence RNA bind-n-seq); RBNS binding buffer (assumed for nsRBNS): 25 mM Tris pH 7.5, 150 mM KCl, 3 mM MgCl2, 0.01% Triton X-100, 500 ug/ml BSA, 20 U/ml SUPERase-In, 4 C; UNK is unkempt and MSI1 is Musashi-1; names of the RNAs are library labels; protein concentration not given here; high values mean tight binding.
UniProt Q61474, sequence (Q61474 whole entry): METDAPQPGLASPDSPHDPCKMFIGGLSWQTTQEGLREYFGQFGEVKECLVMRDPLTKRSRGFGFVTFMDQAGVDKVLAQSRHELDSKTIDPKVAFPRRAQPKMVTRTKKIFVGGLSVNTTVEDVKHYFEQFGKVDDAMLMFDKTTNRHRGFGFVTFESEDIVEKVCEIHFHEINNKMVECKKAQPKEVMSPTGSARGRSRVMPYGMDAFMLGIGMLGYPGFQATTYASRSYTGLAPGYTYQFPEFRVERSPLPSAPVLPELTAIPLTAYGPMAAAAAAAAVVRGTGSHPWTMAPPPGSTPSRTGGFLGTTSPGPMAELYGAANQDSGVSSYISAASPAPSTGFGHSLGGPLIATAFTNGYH
In turn, B1 showed a binding signal of 0.346 enrichment R.
B2 had a binding signal of 0.468 enrichment R.
With B3 the figure was 0.531 enrichment R.
Take B4: the binding signal was 0.766 enrichment R.
To B5 belongs 0.416 enrichment R; to B6, 0.542 enrichment R; to B7, 0.399 enrichment R.
The molecule B8 registered a binding signal of 0.516 enrichment R.
With B9 the figure was 0.266 enrichment R; with B10, 0.418 enrichment R.
B11: the binding signal was found to be 0.878 enrichment R.
In turn, B12 gave a binding signal of 0.314 enrichment R.
To B13 belongs 0.421 enrichment R; to B14, 5.52 enrichment R; to B15, 0.45 enrichment R.
In the case of B16, the binding signal was determined as 0.686 enrichment R.
To B17 belongs 12.4 enrichment R.
On to B18, for which the binding signal was 5.26 enrichment R.
As to B19, the binding signal turned out to be 0.35 enrichment R.
The molecule B20 returned a binding signal of 0.47 enrichment R.
To B21 belongs 26.4 enrichment R.
To B22 belongs 0.396 enrichment R.
